From PubChem BioAssay AID624417 (National Center for Advancing Translational Sciences (NCATS), 2012)
Among all 410,000 compounds or so, about 6,400 (1.6%) were called active. The inconclusive results got no clear call from the source; some entries with a clear call stand among them for comparison. Calls follow the shape of the dose curve; as a rule, active = well fitted inhibition curve with a large enough effect; inconclusive = small, poorly fitted or top-dose-only effect; inactive = no such curve, though single readings can be large or run the other way. Where the call is inconclusive, the potency comes from a doubtful curve fit.

Target: Glucagon-like peptide 1 receptor (Homo sapiens) (UniProt P43220)
Chain of UniProt P43220 (P43220 whole entry, looked up): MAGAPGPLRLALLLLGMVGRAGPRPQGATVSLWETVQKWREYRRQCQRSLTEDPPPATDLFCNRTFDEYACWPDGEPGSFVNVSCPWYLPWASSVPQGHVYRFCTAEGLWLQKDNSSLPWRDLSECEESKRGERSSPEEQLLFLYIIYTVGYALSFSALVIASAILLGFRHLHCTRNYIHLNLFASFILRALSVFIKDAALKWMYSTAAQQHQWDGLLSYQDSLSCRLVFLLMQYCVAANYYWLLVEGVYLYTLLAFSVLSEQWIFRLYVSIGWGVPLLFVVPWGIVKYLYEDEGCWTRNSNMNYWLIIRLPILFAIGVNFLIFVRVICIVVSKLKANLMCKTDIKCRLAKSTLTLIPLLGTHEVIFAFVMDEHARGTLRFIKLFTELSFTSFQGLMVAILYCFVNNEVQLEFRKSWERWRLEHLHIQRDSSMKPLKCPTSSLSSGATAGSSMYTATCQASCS
Test: qHTS of GLP-1 Receptor Inverse Agonists (Inhibition Mode); also: nearly all actives have a fitted effect of over 55% in size
Settings: HEK293 GLP-1R CRE-luciferase, luminescence, 24 h, GLP-1R form is constitutively active; series mostly up to 38.3 µM
Procedure, shortened: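 Assay principle: reduced luminescence from a cAMP-responsive reporter in HEK293 cells co-expressing a constitutively active GLP-1R. Conditions: 24 hr compound incubation, 37 deg C, 5% CO2.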
Potency is read from the fitted curve at half-maximal effect; tags tell the direction and shape of the fitted curve.

Potency, inactive:
Cc1cc(C(=O)COC(=O)C2=NNC(=O)CC2)c(C)n1-c1cccc(C(F)(F)F)c1, Cc1cccc(C)c1NC(=O)Cn1c(=O)cc(C)c2c(C)nn(-c3cccc(Cl)c3C)c21, Cc1ccc(-n2ncc3c(N4CCCCC4)ncnc32)cc1, Nc1c(-c2ccccc2)cnc2cc(-c3ccccc3)nn12, Cc1cc(OCC(=O)Nc2nc3c(s2)CCCC3)cc(C)c1Cl, Cc1cc(C(=O)CSc2n[nH]c(N)n2)c(C)n1-c1ccc(F)cc1, CCCCCCc1cc2cc(-c3cn4c(n3)sc3cc(OC)ccc34)c(=O)oc2cc1O, O=C(CN1C(=O)COc2ccc(S(=O)(=O)N3CCOCC3)cc21)N1CCN(c2ccc(Cl)cc2)CC1, Cc1nn(C)c(C(=O)NN)c1Cl, S=C(NCc1ccncc1)Nc1ccc(Br)cc1, CCN(CC)c1c([N+](=O)[O-])c(=O)n(C)c2ccccc12, CC(=O)Nc1cccc(-c2ccnc3c2CC(C)(C(=O)Nc2cccnc2)O3)c1 (stereo not drawn), CC(C)c1ccc(C(C)NC(=O)C2CCCC2)cc1 (stereo not drawn), Cc1nn(-c2ccc(N3CCOCC3)nn2)c(C)c1CCC(=O)Nc1ccc(F)cc1F, O=C(C[C@H]1C[C@H](C(=O)N2CCOCC2)[C@@]2(CCC3CCCC3)c3[nH]c4ccc(Cl)cc4c3CCN2C1=O)NCC12CC3CC(CC(C3)C1)C2

Potency, active:
O=C(c1nn(Cc2ccccc2)c(=O)c2ccccc12)N1CCN(C/C=C/c2ccccc2)CC1 7.94 µM, Cc1ccc(C(=O)c2sc(Nc3ccc(F)cc3)nc2N)c(C)c1 5.01 µM, CC(C)CC1C(=O)N(Cc2cn(Cc3ccco3)nn2)CCS(=O)(=O)N1Cc1ccc(-c2ccc(Cl)c(Cl)c2)cc1 (stereo not drawn) 10 µM

Potency, inconclusive:
CN(C)CCCNS(=O)(=O)c1ccc(N2CCN(Cc3ccc4c(c3)OCO4)CC2)c([N+](=O)[O-])c1 7.94 µM [inhibitor, partial curve, poor fit], Cc1nn(CCC(=O)NNC(=S)NCC(C)C)c(C)c1Br 1.26 µM [inhibitor, partial curve, poor fit], O=C(Nc1ccnn1C1CCN(CCCc2ccccc2)CC1)c1ccccc1Cl 10 µM [inhibitor, partial curve], CC(C)(C)C(=O)N1N=C(c2ccc(NS(C)(=O)=O)cc2)CC1c1cccs1 (stereo not drawn) 8.91 µM [inhibitor, single point], CCCOc1ccc(C(=O)NCCc2ccccc2)cc1 3.98 µM [inhibitor, partial curve, poor fit], COc1ccccc1CNS(=O)(=O)c1ccc(-c2cc(C)no2)cc1 1.12 µM [inhibitor, full curve], Cc1ccc(C)c(S(=O)(=O)N2CCCC2CNC(=O)C(=O)NCc2ccccc2)c1 (stereo not drawn) 2.24 µM [inhibitor, full curve, poor fit], Cc1ccccc1C(=O)n1nc(-c2cccnc2)nc1NCc1ccc(F)cc1 3.55 µM [inhibitor, partial curve, poor fit], O=C(OCC(=O)N1CCC(Cc2ccccc2)CC1)c1ccccc1NCCO 28.2 µM [inhibitor, single point], CCc1ccc(OC)c(-c2csc(N)n2)c1 28.2 µM [inhibitor, single point], CC(NC(=O)/C(C#N)=C/c1ccc([N+](=O)[O-])o1)c1ccccc1 (stereo not drawn) 28.2 µM [inhibitor, single point], FC(F)Sc1ccc(-n2c(-c3ccc(Cl)cc3)c[n+]3c2CCC3)cc1 3.16 µM [inhibitor, full curve], CN(Cc1cccc(Cl)c1Cl)C(=O)c1cc(S(=O)(=O)N2CCOCC2)ccc1F 28.2 µM [inhibitor, single point], Cc1ccc(N2C(=O)CC(Cc3cccc(C)c3)C2=O)cc1 (stereo not drawn) 11.2 µM [inhibitor, single point], Cn1c(NCc2ccco2)nc2c1c(=O)n(Cc1ccc(Cl)c(Cl)c1)c(=O)n2C 0.501 µM [inhibitor, full curve, poor fit], Nc1ncccc1C(=O)OCC(=O)N1CCN(S(=O)(=O)c2ccc(Cl)cc2)CC1 5.62 µM [inhibitor, partial curve, poor fit], CCN1CCN(c2ccc(NC(=O)c3cc(S(=O)(=O)N4CCCC4)ccc3Cl)cc2)CC1 1.41 µM [inhibitor, full curve, poor fit], CCOC(=O)c1c(NC(=O)c2ccccc2N(C)S(=O)(=O)c2ccccc2)sc2c1CCCC2 2 µM [inhibitor, full curve, poor fit], Cc1noc(C)c1CSc1nc2ccccc2c(=O)n1-c1ccc(F)cc1F 3.98 µM [inhibitor, partial curve, poor fit], CCN(Cc1ccccc1)S(=O)(=O)c1cc(C(=O)NCC2CCCCC2)ccc1OC 6.31 µM [inhibitor, partial curve, poor fit], Cc1ccc(C(=O)N2CCN3C(=O)c4ccccc4C23c2ccc(Cl)cc2)cc1 (stereo not drawn) 11.2 µM [inhibitor, single point], CCCCN1CC(COCc2ccccc2)Oc2cccc(OCc3ccc(OC)cc3)c2S1(=O)=O (stereo not drawn) 2.82 µM [inhibitor, full curve], O=C1C=CC(=O)N1c1cccc(-c2ccccc2)c1 11.2 µM [inhibitor, partial curve, poor fit], CCCc1nc2ccccc2c(C(=O)OCC(=O)Nc2cccc(S(=O)(=O)N3CCOCC3)c2)c1CC 10 µM [inhibitor, partial curve, poor fit], COc1cccc(-n2cc(C(=O)NCc3ccc(C)cc3)c3ccccc3c2=O)c1 31.6 µM [inhibitor, partial curve, poor fit], Cc1ccc(-c2nc3cc(C)c(Br)c(C)n3c2CC(C)(C)C)cc1 12.6 µM [inhibitor, partial curve, poor fit], COc1ccccc1C(=O)Nc1ccnn1C1CCN(C/C=C/c2ccc(F)cc2)CC1 11.2 µM [inhibitor, partial curve, poor fit], CCOc1ccc(N=C2SC(C(=O)Nc3ccccc3C#N)C(N)=C2C(=O)Nc2ccc(Cl)cc2)cc1 (stereo not drawn) 28.2 µM [inhibitor, single point], CC(C)(C)c1ccc(NC(=O)c2ccsc2)cc1 12.6 µM [inhibitor, single point], Cc1cc2nc(-c3ccc(SCC(=O)Nc4ccc(S(=O)(=O)NC5CC5)cc4)nc3)[nH]c2cc1C 14.1 µM [inhibitor, single point], CCCOc1ccc(NC(=O)CC2C(=O)Nc3ccccc3N2CC(=O)N2CCCC2)cc1 (stereo not drawn) 28.2 µM [inhibitor, single point], CC1(C)CC(NS(=O)(=O)c2cccc3ccccc23)CC(C)(C)N1 14.1 µM [inhibitor, partial curve, poor fit], COC(=O)c1cc(NC(=O)c2cccc(C(F)(F)F)c2)c(=O)oc1C/C=N/OCc1cccc(Cl)c1Cl 10 µM [inhibitor, partial curve], COc1ccc(C2SCCN2C(=S)Nc2ccc(Cl)cc2)cc1 (stereo not drawn) 17.8 µM [inhibitor, single point], Cc1ccc(Sc2c(C)nn(C(=O)CNS(=O)(=O)c3ccc(F)cc3)c2C)cc1 28.2 µM [inhibitor, single point], O=C(Nc1ccc(Cl)c(C(F)(F)F)c1)C(Cc1ccccc1)NS(=O)(=O)c1cccc2nsnc12 (stereo not drawn) 3.98 µM [inhibitor, partial curve, poor fit], Cc1ccc2[nH]c(=O)c(CN(C(=O)c3cccc([N+](=O)[O-])c3)C(C)(C)C)cc2c1 20 µM [inhibitor, single point], O=C(COc1ccc(Cl)cc1)NCc1ccc(F)cc1 15.8 µM [inhibitor, single point], Fc1ccccc1N1CCN(C(c2ccnc3ccccc23)c2nnnn2-c2ccc3c(c2)OCCO3)CC1 (stereo not drawn) 28.2 µM [inhibitor, single point], CC1=NN(C(=O)c2c(Br)cnn2C)C(O)(C(F)(F)F)C1 (stereo not drawn) 5.01 µM [inhibitor, partial curve], O=C(Nc1cccc(S(=O)(=O)N2CCCC2)c1)c1ccc(Cl)nc1 5.01 µM [inhibitor, full curve], CC(C)(C)n1nnnc1C(c1ccc(Cl)cc1)N1CCSCC1 (stereo not drawn) 12.6 µM [inhibitor, partial curve, poor fit], O=C(NCCC1=CCCCC1)C1CCN(S(=O)(=O)c2cccc(C(F)(F)F)c2)CC1 28.2 µM [inhibitor, single point], CCOc1ccc(C(=O)NC(=S)Nc2cccc(S(=O)(=O)NC3=NCCC3)c2)cc1 1.78 µM [inhibitor, full curve, poor fit], O=C(Nc1ccc(NC(=O)c2ccccc2F)cn1)c1ccco1 11.2 µM [inhibitor, partial curve, poor fit]
